Measured values as given in the supplement of paper PMC4604168 (melanoma cell lines).
This is one part of the list. Many values rest on one well or one pass, so single values are uncertain.

Key:
Assay in all cases: cell count relative to DMSO control; melanoma cells; higher = more viable cells
Settings in all cases: library dose: low library concentration; 72 h; first compound 0.4 µM
MZ2-MEL = tested on: MZ2-MEL
MeWo = tested on: MeWo
RPMI7951 = tested on: RPMI7951
RVH-421 = tested on: RVH-421
SkMel28 = tested on: SkMel28
SkMel2 = tested on: SkMel2
SkMel30 = tested on: SkMel30
UACC62 = tested on: UACC62
SkMel5 = tested on: SkMel5
UACC257 = tested on: UACC257
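Further: cell number obtained by counting DAPI-stained nuclei in high-throughput microscope images with image analysis software, screen run in 1,536-well plates.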

| SMILES | cell count (MZ2-MEL) [%] | cell count (MeWo) [%] | cell count (RPMI7951) [%] | cell count (RVH-421) [%] | cell count (SkMel28) [%] | cell count (SkMel2) [%] | cell count (SkMel30) [%] | cell count (UACC62) [%] | cell count (SkMel5) [%] | cell count (UACC257) [%] |
| --- | --- | --- | --- | --- | --- | --- | --- | --- | --- | --- |
| C[C@@H](N)c1ccc(C(=O)Nc2ccnc3[nH]ccc23)cc1 + CCCS(=O)(=O)Nc1ccc(F)c(C(=O)c2c[nH]c3ncc(Cl)cc23)c1F [PLX4720] (partner dose 0.08 µM) | 62.9 | 66.2 | 70.6 | 55.5 | 69.9 | 91.2 | 77.3 | 68.4 |  |  |
| Cn1sc(=O)n(Cc2ccccc2)c1=O + C=CCNC1=C2C[C@@H](C)C[C@H](OC)[C@H](O)[C@@H](C)/C=C(\C)[C@H](OC(N)=O)[C@@H](OC)/C=C\C=C(/C)C(=O)NC(=CC1=O)C2=O [Tanespimycin] (partner dose 0.002 µM) |  | 96.7 | 96.9 | 106 | 79.8 |  | 86.5 | 110 |  |  |
| Cn1sc(=O)n(Cc2ccccc2)c1=O + C[C@@H](Oc1cc(-c2cnn(C3CCNCC3)c2)cnc1N)c1c(Cl)ccc(F)c1Cl [Crizotinib] (partner dose 0.2 µM) | 109 | 101 | 102 | 93.2 | 99.3 | 95.7 | 98.1 | 92.6 |  |  |
| Cn1sc(=O)n(Cc2ccccc2)c1=O + NCC(=O)Nc1ccc(-n2nc(C(F)(F)F)cc2-c2ccc3c(ccc4ccccc43)c2)cc1 [OSU03012] (partner dose 1 µM) |  | 53.2 | 83 | 112 | 76.9 |  | 52.8 | 86 | 83.3 | 65.5 |
| CCCCCCCCCCCCCCCCCCOP(=O)([O-])OC1CC[N+](C)(C)CC1 [Perifosine] + Cc1cc(Nc2cc(N3CCN(C)CC3)nc(/C=C/c3ccccc3)n2)n[nH]1 [ENMD2076] (partner dose 0.04 µM) | 108 | 105 | 74.6 | 114 | 90.2 | 99.4 | 110 | 95.2 |  |  |
| Cn1sc(=O)n(Cc2ccccc2)c1=O + Cc1nc(Nc2ncc(C(=O)Nc3c(C)cccc3Cl)s2)cc(N2CCN(CCO)CC2)n1 [dasatanib] (partner dose 0.004 µM) | 90.5 | 93.5 | 90.1 | 92.8 | 85.9 | 99 | 89.7 | 82.7 |  |  |
| C[C@@H](N)c1ccc(C(=O)Nc2ccnc3[nH]ccc23)cc1 + NC(=O)c1ccc(N(C(N)=O)c2c(F)cccc2F)nc1-c1ccc(F)cc1F [VX702] (partner dose 0.4 µM) | 76.7 | 77.6 | 71.7 | 63.4 | 79.8 | 98.7 | 128 | 100 |  |  |
